According to PubChem BioAssay AID1508624 (National Center for Advancing Translational Sciences (NCATS), 2021):
Screen size: about 48,000 compounds; about 120 (0.25%) were called active. About 4% were inconclusive and are not listed. Calls follow the shape of the dose curve; as a rule, active = well fitted activation curve with a large enough effect; inconclusive = small, poorly fitted or top-dose-only effect, or another doubt; inactive = no such curve, though single readings can be large or run the other way. The list shows a part of the results.

experiment: Primary qHTS for Identification of Small Molecule Activators of Huntingtin-Antisense Promoter Activity; conditions: HEK293 HTT-AS promoter firefly luciferase reporter (activity 0% = vehicle and -100% = no light), 24 h; series mostly up to 57.5 µM; activity change, positive = activation: at the top concentration; also: nearly all actives have a fitted effect of over 55% in size
In short: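 Firefly luciferase signal from promoter-reporter HEK293 cells was scaled between vehicle (0%) and zero RLU (-100%). Compounds were tested at final concentrations of up to 57.5 uM over 24 h at 37 degrees C. PTC124 at 50 uM final served as control inhibitor.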

Row | SMILES | activity change, positive = activation
1 | CCOc1ccccc1NC(=O)c1ccc2c(c1)CCN2S(C)(=O)=O | inactive: -4.74%
2 | COc1cc(C2c3c(-c4cc(C)ccc4O)n[nH]c3C(=O)N2Cc2cccnc2)cc(OC)c1OC (stereo unspecified) | inactive: -4.09%
3 | Cc1ccc(-n2c(SCC(=O)N3CCc4ccccc43)nc3c([nH]c4ccccc43)c2=O)cc1 | inactive: 8.93%
4 | CCn1cc2nc(SCC(=O)Nc3cc(OC)ccc3OC)n(Cc3ccc(Cl)cc3)c(=O)c2n1 | inactive: -22.3%
5 | O=C(Nc1ccc(OC(F)(F)F)cc1)c1cc2c(=O)n3ccccc3nc2s1 | inactive: -0.645%
6 | CCS(=O)(=O)N1CCc2cc(C(=O)Nc3cc([N+](=O)[O-])ccc3C)ccc21 | inactive: -20.8%
7 | O=C(CCn1c(=O)c2cccn2c2cccnc21)N1CCN(c2ccc(F)cc2)CC1 | inactive: -15.5%
8 | COc1ccc(C(=O)Nc2ccc3nc(SCC(=O)N4CCCC4)sc3c2)cc1 | inactive: -8.59%
9 | COc1ccccc1CCNC(=O)Cn1ccc2cc(S(=O)(=O)N3CCCCC3)ccc21 | inactive: -38.5%
10 | CC(C)(C)CC(C)(C)c1ccc(O)c(Cc2ccc(Cl)cc2Cl)c1 | inactive: -0.121%
11 | CCCC(=O)Nc1nnc(SCc2cc(=O)n3ccccc3n2)s1 | inactive: -5.97%
12 | O=C(NC1CCCCC1)c1ccc2c(c1)N(Cc1ccccc1F)C(=O)c1ccccc1S2 | inactive: -1.9%
13 | Cn1c(=O)c(=O)n(C)c2cc(S(=O)(=O)N3CCCC3C(=O)Nc3cccc(F)c3)ccc21 (stereo unspecified) | inactive: -3.8%
14 | CCc1ccccc1NC(=O)c1nn(-c2ccc(C)cc2)c(=O)c2c1c1ccccc1n2C | inactive: 15%
15 | CC(C)c1cc(C(=O)NCc2ccc(F)cc2)no1 | inactive: 29.4%
16 | CCS(=O)(=O)n1nc(-c2ccco2)nc1NCc1ccc(C(C)C)cc1 | inactive: 10.2%
17 | CC(=O)Nc1ccc(NC(=O)C(NC(=O)C2CCC(C)CC2)C(C)C)cc1 (stereo unspecified) | inactive: -16.9%
18 | CN(C)CCOc1ccc(C(=C(CCCl)c2ccccc2)c2ccccc2)cc1 | inactive: -12%
19 | Cc1ccc(-n2cnc3cc(C(=O)NC4CCCCCC4)ccc32)c(C)c1 | inactive: -19.9%
20 | COc1ccc(C)cc1NC(=O)C1CCC(CNS(=O)(=O)c2ccc3c(c2)CCCC(=O)N3)CC1 (stereo unspecified) | inactive: -36.5%
21 | CCc1ccc(Cn2nnc3c(=O)[nH]c(C4CCCN(C(=O)c5cccc(Cl)c5)C4)nc32)cc1 (stereo unspecified) | inactive: -23.3%

Row | SMILES | activity change, positive = activation
22 | O=C(Nc1ccc(F)cc1)c1ccc(CN2CC(=O)N3CCCCC3C2=O)cc1 (stereo unspecified) | inactive: -12.6%
23 | CC(=O)c1cccc(NC(=O)CCS(=O)(=O)c2ccc3c(c2)n(C)c(=O)c(=O)n3C)c1 | inactive: -6.91%
24 | COc1ccc(OC)c(NC(=O)CSc2c3c(nc4cc(Cl)ccc24)CCCC3)c1 | inactive: -12.5%
25 | NC(=O)CSc1nc2cc3c(cc2c(=O)n1CCCCCC(=O)NCc1ccc2c(c1)OCO2)OCO3 | inactive: 11.7%
26 | O=C(Nc1ccccc1C(F)(F)F)C1(S(=O)(=O)c2ccc(Cl)cc2)CC1 | inactive: -10.4%
27 | CN1CC(=O)N(CC(=O)Nc2cccc(C#N)c2)c2ccccc2C1=O | inactive: -7.14%
28 | COc1ccc(OC)c(NC(=O)C2CCCN(S(=O)(=O)c3ccc4[nH]c(=O)ccc4c3)C2)c1 (stereo unspecified) | inactive: -16.7%
29 | CCOC(=O)N1CCN(Cc2nc3cc(NC(=O)c4ccc(F)cc4)ccc3n2C(C)C)CC1 | inactive: -38.5%
30 | COc1ccc(-c2cn3c(n2)sc2cc(C(=O)NCC(C)c4ccccc4)ccc23)cc1 (stereo unspecified) | inactive: 27.6%
31 | Cc1c(Cl)cccc1NC(=O)Nc1nnc(N(C)C2CCCCC2)s1 | inactive: -11%
32 | Cc1ccc(CCNC(=O)c2cnc3c(C)cccn3c2=O)cc1 | inactive: 12.8%
33 | CCCCCCNC(=O)CCc1c(C)nc2nc(-c3cc(OC)cc(OC)c3)nn2c1C | inactive: -16.2%
34 | Cc1ccc(C(=O)c2cn(Cc3cc(C)ccc3C)c3nc(C)ccc3c2=O)cc1 | inactive: -26%
35 | CN(C1CCCCC1)S(=O)(=O)c1ccc2c(c1)c(=O)c(C(=O)N1CCN(c3ccc(F)cc3)CC1)cn2C | inactive: -6.91%
36 | CCOCCCNC(=O)C(NC(=O)C1CCC(C)CC1)C(C)C (stereo unspecified) | inactive: -3.97%
37 | CCN1CCSc2ccc(C(=O)NCc3ccc(F)cc3)cc21 | inactive: -17%
38 | CCCCNC(=O)c1cc(-c2cccnc2)nc2ccc(S(=O)(=O)NCCCC)cc12 | inactive: -12%
39 | COc1ccc(NCc2cccn2-c2nnc(N3CCOCC3)s2)cc1OC | inactive: -6.38%
40 | COc1ccc(CNC(=O)Cn2ncc3c(=O)oc4ccccc4c32)c(OC)c1 | inactive: 2.38%
41 | CC(=O)c1c(C)n(S(=O)(=O)c2ccc(Cl)cc2)c2ccc(NS(=O)(=O)c3ccc(Cl)cc3)cc12 | inactive: -24.3%
42 | Cc1cc(C)cc(NC(=O)Cn2nc(N3CCN(c4ccccc4)CC3)ccc2=O)c1 | inactive: -25.9%

Row | SMILES | activity change, positive = activation
43 | CC(C)c1ccc(OCC(=O)Nc2cc(-c3ccccc3)no2)cc1 | inactive: 0%
44 | COc1ccc(S(=O)(=O)NCCc2sc(-c3cccnc3)nc2C)cc1OC | inactive: -11%
45 | COc1cc(CN(C(=O)c2ccccc2Br)c2ccccn2)cc(OC)c1OC | inactive: -12.7%
46 | Cc1ccc(NC(=O)CN2C(=O)C(c3ccc(C)cc3)=NC23CCCCCC3)cc1 | inactive: -40.2%
47 | Cc1ccc(C)c(N2CCN(C(=O)CCS(=O)(=O)c3ccc4c(c3)oc(=O)n4C)CC2)c1 | inactive: -29.4%
48 | COc1ccc2c(c1)c(=O)c(S(=O)(=O)c1ccc(Cl)cc1)cn2Cc1cc(C)ccc1C | inactive: -8.37%
49 | CCOC(=O)c1ccc(N)cc1 | inactive: -2.97%
50 | CCOc1cc2c(cc1OCC)C(CC(=O)OC)N(C(=O)Nc1cc(OC)ccc1OC)CC2 (stereo unspecified) | inactive: -49.3%
51 | CCN(CC)C(=O)c1sc2c(c1C)c(=O)n(CCc1ccccc1)c(=O)n2Cc1ccc(C)cc1 | inactive: -23.1%
52 | CCn1ccc2c(OCC(=O)Nc3ccc(C)c(Cl)c3)cccc2c1=O | inactive: -27.9%
53 | COc1cccc(N2CCN(C(=O)CCSCc3ccccc3F)CC2)c1 | inactive: -4.59%
54 | CCN(CC)c1cc(C)c2cc(NC(=O)c3cc(OC)cc(OC)c3)ccc2n1 | inactive: -17.8%
55 | Cc1cccc(C(=O)Nc2c(C(=O)N3CCN(c4ccc(F)cc4)CC3)oc3ccccc23)c1 | inactive: -16.5%
56 | CCOC(=O)C1CCN(S(=O)(=O)c2cc3c4c(c2)C(C)C(=O)N4CCC3)CC1 (stereo unspecified) | inactive: -8.11%
57 | Cc1cc(=O)n(Cc2c(F)cccc2Cl)c2c1c(C)nn2-c1cccc(F)c1 | inactive: -8.83%
58 | O=C(Cc1ccc(Cl)cc1)NCC(c1cccs1)S(=O)(=O)c1ccccc1 (stereo unspecified) | inactive: -18.3%
59 | CCCSc1ncc(Cl)c(C(=O)Nc2sc(C(C)=O)c(C)c2C(=O)OCC)n1 | inactive: 13.3%
60 | Cc1ccc(S(=O)(=O)N(CC(=O)Nc2ccc(F)cc2F)Cc2ccc(F)cc2)cc1 | inactive: -22.7%
61 | CC(=O)Nc1ccc(NC(=O)c2cc(CN3CCCC3)on2)cc1 | inactive: -0.787%
